T1: UNK ZnF1-3 (human, UniProt Q9C0B0 31-174)
T1 sequence: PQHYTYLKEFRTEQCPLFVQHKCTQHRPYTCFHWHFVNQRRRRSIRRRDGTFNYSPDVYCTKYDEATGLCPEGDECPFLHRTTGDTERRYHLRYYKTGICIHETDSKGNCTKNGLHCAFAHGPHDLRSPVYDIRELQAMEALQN

B1: chr11:115359427:115359428:-_ENSMUSG00000020737_ENSMUST00000021083|mus_hu|FALSE|FALSE (ssRNA)
RNA: GGGAGUUCUACAGUCCGACGAUCUGCAGUUCACAAGCAUGGAGGAAACAGACAGAACGACAGCGUUCAGGACAGUCAGAGCUAACCCAAGACGAGGCUGGACUUGCCGCCAGGGGGAUUUCUUCUGGAUGGCACUGGGGCCGGCAACAGAGGAUUGAGCAUCA
B2: chr11:46405157:46405158:+_ENSG00000110492_ENST00000395566|hu_hu|hu_hu_hu_mus_False|28_48 (ssRNA)
RNA: GGGAGUUCUACAGUCCGACGAUCCCCUCCCCACUUUGGGCACUUGGUGUGGGCGUGAGAGGACAGGCGUGAUUGACAGAGCUGACAAGCAGACAGAAGGCACUGGUGGGUCACAUCUUGGGCCUGUGGGAGAGGAGGGCUCCGCAACAGAGGAUUGAGCAUCA
B3: 35579135_35579255_1938_CDS_ENSG00000197056_ENST00000373330|human|control|control (ssRNA)
RNA: GGGAGUUCUACAGUCCGACGAUCUUGUGAAUUCAUAAGUCGAAAUGUUUCUUCUCCUUUAUCUUUUGCUCUCAUUUCUAACAAUUCUAAAAAAUUGCCUUUAUUCACAGAUGAAACUGACUGGUCGUUUCCUCUUAAGGGUAACAACAGAGGAUUGAGCAUCA
B4: chr9:14812383:14812384:-_ENSMUSG00000031934_ENSMUST00000164273|mus_mus|mus_mus_mus_hu_True|38_98 (ssRNA)
RNA: GGGAGUUCUACAGUCCGACGAUCAUAGCCCAGGUAGAUACAUGCCAACAGUAUAAUGAUGAGUGUCAGCAGGCGGCAGCUAAUGUACUUGAUGAUUAAAUGACUAGAAUUUUUCUUUGUCUUCAAGUACUGCUCCACAAUUGGCAACAGAGGAUUGAGCAUCA
B5: chrX:130830059:130830060:+_ENSMUSG00000033578_ENSMUST00000037687|mus_hu|motif|central (ssRNA)
RNA: GGGAGUUCUACAGUCCGACGAUCGGGCCACAAUAGUUACGGUUCUGGGGGAUGCCAUGGGGUCGCCAAGGCAGGUCCCAACGGAUCCUUCUGAUUUGCGCACCCGCUCUGUCCAAGGUGCAGGCAGUUAGCACAGGGAGAGCUCAACAGAGGAUUGAGCAUCA
B6: chr2:42509997:42509998:+_ENSG00000143924_ENST00000318522|hu_hu|motif|central (ssRNA)
RNA: GGGAGUUCUACAGUCCGACGAUCUCGCUGAGUUCUCUCCUCAUAAUUAAAUAGUACUACUACUGAUGCAAUGAAAUAAACGGUUUUCCCGGUCGGAAGAAGGUAAACAUUAGCUCUACAGUCCUUUCCUCGAUAACCAUAUGCCAACAGAGGAUUGAGCAUCA
B7: 62551017_62551963_1832_CDS_ENSG00000108854_ENST00000262435|human|control|control (ssRNA)
RNA: GGGAGUUCUACAGUCCGACGAUCGCCAUUUGGUUUAAGUUCAUGCUGAAUAAUUUCACCAUAUGCAUUAUGUUCAACACAGAAGGUAUGGUCCAAAACACCUGUAAUAUCAUUCUCAAGUAUCCACACUAAACUGUUGUGAAGCAACAGAGGAUUGAGCAUCA
B8: chr6:86333760:86333761:-_ENSG00000135316_ENST00000355238|hu_mus|hu_hu_hu_mus_True|18_28 (ssRNA)
RNA: GGGAGUUCUACAGUCCGACGAUCUUCCUCAAGAAUCUGCUCCUUGGUUUUACUCUUAGGAAUCGAGCCCACAAAAAGCCUAUUGUUGGCAACUGAGAUGCAGACACCAAUAUGUUUUCCAGAACGAAUUUCAUGAUUAUUAUACAACAGAGGAUUGAGCAUCA
B9: chr2:113286301:113286302:+_ENSG00000114999_ENST00000233336|hu_hu|FALSE|FALSE (ssRNA)
RNA: GGGAGUUCUACAGUCCGACGAUCAGCUGGCUGGGUCUGAGGUUGCUCCACAUCUGGGGGUGGGAAGACACUGGAAAUGGCUAUGUCCACGAUGCCUUGGCACAGUUCUGCAUAGAGCUUCUGAGCACAUGCAGGGGCACCGUUCAACAGAGGAUUGAGCAUCA
B10: chrX:71549762:71549763:+_ENSMUSG00000019087_ENSMUST00000019231|mus_mus|mus_mus_mus_hu_False|68_98 (ssRNA)
RNA: GGGAGUUCUACAGUCCGACGAUCAAACCCGUGUACUCACUCUUAACAGCACAACAUCACCAGAAAAAAAACAUAACAGCCAAGCAGGACAGACAGUUAAGUAGUACUUCCACACUCCCAAACUCAGGGAGCCCUAUAACCUUACAACAGAGGAUUGAGCAUCA
B11: chr4:175160266:175160267:-_ENSG00000164117_ENST00000503293|hu_mus|motif|central (ssRNA)
RNA: GGGAGUUCUACAGUCCGACGAUCAGGGGCAUGAAUAUGACGAAAAAAUUCUCUCAGUGCAUUCGGCAAGAACUGAUUUCGGAAAUUAUGCAAGGUUACAAGGUCAUCCAAGACAUCUCUCCUUUCAUCAAGAUAGAUUCUCAGCAACAGAGGAUUGAGCAUCA
B12: 98597986_98598106_1487_CDS_ENSMUSG00000028560_ENSMUST00000091358|mouse|control|control (ssRNA)
RNA: GGGAGUUCUACAGUCCGACGAUCAGGUUGUCCUUUGGAGCGCUGGUUAGUUGUUAUUUUUCCAAGACUACAGAACUUGGAAAGAAUGCUGGGUUGCUUAGUGGAUGGCUUUAACCAAUUUAUUUUAACUUUUGAUUUCUUCUGCAACAGAGGAUUGAGCAUCA
B13: chr10:5788261:5788262:+_ENSG00000108021_ENST00000328090|hu_mus|FALSE|FALSE (ssRNA)
RNA: GGGAGUUCUACAGUCCGACGAUCAUAAGCUGUGGUCAAGGUGGCUUGUGUGACAGAAUCAUUAUAAGAAACCAUCUUUGUGCUCUGACAGGUUUUAUCUUCACUGGGAAUACAAGUACCAUGACUUUGGGCACUUACAACACCCAACAGAGGAUUGAGCAUCA
B14: 226175988_226178962_701_3pUTR_ENSG00000143751_ENST00000272091|human|control|control (ssRNA)
RNA: GGGAGUUCUACAGUCCGACGAUCCAUGGAAACCCAUUCCUGAAGUGCUUGGUGCUUCUUCACUGUCAUCAUCUGAACUCUCAGAGUUGGACCCUUCUGCAGUCUCUAGUCCCUCCAUGCCCAACCAGAAGCAUCUCCUCUUUCCAACAGAGGAUUGAGCAUCA
B15: chr4:17845017:17845018:+_ENSG00000109805_ENST00000514176|hu_mus|hu_hu_hu_mus_False|1_58 (ssRNA)
RNA: GGGAGUUCUACAGUCCGACGAUCGCUCUCUUAACUUGUAUCUUCAUUAAGGAACUCUGCAAGGUUAAGUUUACUUUUUCUAGUGCUAGCUGUUUUGGCUCGUCUGGGUAAUCUCAUCUUCAUUUCUGAUGGUGGUUUGGAACUCAACAGAGGAUUGAGCAUCA
B16: chr4:11091628:11091629:+_ENSMUSG00000028211_ENSMUST00000029865|mus_hu|FALSE|FALSE (ssRNA)
RNA: GGGAGUUCUACAGUCCGACGAUCUUCUUUCUCAUUGAAUUCUGGUUCUUGGUUGGAGGAAGAACUGACUUCACCCACAAACAUUUUAUUCAGCCUCUGGAACAUUGUUAAGGCAAGACUGAGAGUUUGGCUGGAUGUCUUUUACAACAGAGGAUUGAGCAUCA
B17: chr12:48362563:48362564:+_ENSG00000134291_ENST00000256686|hu_hu|hu_hu_hu_mus_False|88_98 (ssRNA)
RNA: GGGAGUUCUACAGUCCGACGAUCUCCGUCAAGCCCUUCAAGCCCCACAUAGACUCUAAACUGUAAUCACUUUGUAUGGGGAAGGAAAAGAAACGCCAAAAACUUUCCAAAAAGCGGGGGUGGGGUGAGGCGGGAGGGGGAGGUCAACAGAGGAUUGAGCAUCA
B18: chr3:185643329:185643330:-_ENSG00000136527_ENST00000456380|hu_mus|FALSE|FALSE (ssRNA)
RNA: GGGAGUUCUACAGUCCGACGAUCGACAUGGGAGAAUGGCUGUGGCUGUGGCGCCUGCGAUAAUCUCGGCUGUAAGACCUGCUCCGGGAUCGUCUAUGCGAGCGAGAUCGUGAUCGUGACCUUGUAUAAUGCCUUCUAGAACUUCAACAGAGGAUUGAGCAUCA
B19: chr22:19452774:19452775:-_ENSG00000070010_ENST00000399523|hu_hu|hu_hu_hu_mus_False|68_108 (ssRNA)
RNA: GGGAGUUCUACAGUCCGACGAUCCUUUUCAUUAUAGUUGAUAGCAAUCACAUCUCCAGUCGUCAGACAGGCAAAGUUUCUCAAUGCAUUUUCUAAUACCGCUUUAGGGUUGGUAAUAUCCAGGAAGUCUGGGCUCUGAGGCUGCAACAGAGGAUUGAGCAUCA
B20: 72858643_72858763_662_CDS_ENSG00000164331_ENST00000296785|human|control|control (ssRNA)
RNA: GGGAGUUCUACAGUCCGACGAUCAGUGCUGGGACACUCUUCCACGAUAAGCUGGGCUCCAAUAUCCAGAUUUGUUGAUGUAUCCAUGAUUUCAACUGUAGUUUCAAUAACUAAAACAUUUCUUCAUGAUUUCCUCUUGGUUUUCAACAGAGGAUUGAGCAUCA
B21: chr1:6885190:6885191:+_ENSG00000171735_ENST00000473578|hu_hu|motif|central (ssRNA)
RNA: GGGAGUUCUACAGUCCGACGAUCUGAACAUUUCGGCAGACAUUCAAGCAGCUUUUUCGGUAAAAAGAUUUUUACAUGACGGCGGUUGCUGUUCCCAUGAUCAUCUUCUAUAGGUGGCACGGUGUUGAGAACACAGUAGGUGCUCAACAGAGGAUUGAGCAUCA
B22: chr7:140404665:140404666:+_ENSG00000090266_ENST00000247866|hu_hu|FALSE|FALSE (ssRNA)
RNA: GGGAGUUCUACAGUCCGACGAUCCUUGUACAGAGUGAGGCUGAGUCUACACCUUCAGUCUUCAUCAUCAGGAGGGAUACCUAAUUCUUCAUCUGUCCACUGGGAAGGAUCAGGAUACGGAAAGUGACCCAGCACCUCUUCUGACAACAGAGGAUUGAGCAUCA

These results are taken from PMC12136788.

The list shows a part of the results.

For this assay, the target named is T1, UNK ZnF1-3. In words: nsRBNS (natural sequence RNA bind-n-seq); RBNS binding buffer (assumed for nsRBNS): 25 mM Tris pH 7.5, 150 mM KCl, 3 mM MgCl2, 0.01% Triton X-100, 500 ug/ml BSA, 20 U/ml SUPERase-In, 4 C; UNK is unkempt and MSI1 is Musashi-1; names of the RNAs are library labels; protein concentration not given here; high values mean tight binding.
The molecule B1 displayed a binding signal of 1.71 enrichment R.
For B2, the binding signal came to 2.04 enrichment R.
In turn, B3 yielded a binding signal of 0.521 enrichment R.
The value for B4 was 1.25 enrichment R; that for B5 was 0.83 enrichment R.
Molecule B6 returned a binding signal of 1.03 enrichment R.
With B7 the figure was 1.09 enrichment R.
B8 showed a binding signal of 1.22 enrichment R.
The value for B9 was 1.3 enrichment R.
Consider B10, for which the binding signal worked out at 2.33 enrichment R.
With B11 the figure was 1.21 enrichment R; with B12, 1.12 enrichment R; with B13, 0.996 enrichment R.
With B14 the figure was 1.02 enrichment R.
For B15, the binding signal came to 0.331 enrichment R.
With B16 the figure was 0.535 enrichment R; with B17, 2.24 enrichment R; with B18, 0.854 enrichment R.
Turning to B19, the binding signal worked out at 1.08 enrichment R.
The value for B20 was 0.648 enrichment R.
In the case of B21, the binding signal is 0.797 enrichment R.
B22 gave a binding signal of 0.933 enrichment R.
